Assay results taken from PubChem BioAssay AID463173 (ICCB-Longwood Screening Facility, Harvard Medical School, 2010).
The whole screen tested about 52,000 compounds, of which about 1,700 (3.3%) were called active. Rule as the data show it: active = survival mostly below about 52% (no sharp cut-off); inactive = mostly above about 56%. The list shows a part of the results.

Tested on: Wild type
Assay: growth inhibition of S. aureus wild type versus tarO mutant, primary screen, teichoic acid synthesis inhibitors, RN4220, OD600 (AID 463173)
Conditions: S. aureus RN4220 wild type/DeltatarO growth, OD600, 18 h, hits give low values, screened at 18.75 µg/mL (by protocol)

Row | SMILES | survival
1 | Cc1cc(C)cc(C(=O)NCC(c2ccc(N(C)C)cc2)N2CCCC2)c1 (stereo not drawn) | inactive: 69%
2 | O=C(NCc1ccc(Cl)cc1)c1ccc(Cn2c(=O)c3cccn3c3cccnc32)cc1 | inactive: 84%
3 | Oc1ccccc1Nc1nc2ccccc2n2nnnc12 | inactive: 85%
4 | COc1ccc(-c2c(C)c3ccc(O)c(CN4CCCC(C)C4)c3oc2=O)cc1OC (stereo not drawn) | inactive: 91%
5 | O=C1CCc2cc(S(=O)(=O)NC(C(=O)Nc3cccc(F)c3)c3ccccc3)ccc2N1 (stereo not drawn) | inactive: 88%
6 | CC1Cc2ccccc2N1C(=O)Cn1c(-c2cccnc2)ccc(C#N)c1=O (stereo not drawn) | inactive: 128%
7 | COc1ccc(S(=O)(=O)N2CCN(Cc3nc4ccc(C)cc4o3)CC2)cc1 | inactive: 72%
8 | O=C(Cn1c(=O)n(Cc2nc(-c3ccccc3)no2)c(=O)c2ccccc21)Nc1cccc(Cl)c1 | inactive: 71%
9 | Cc1ccc(C)c(Nc2nnc(-c3ccc(C)c(S(=O)(=O)NCC4CCCO4)c3)c3ccccc23)c1 (stereo not drawn) | inactive: 88%
10 | COc1ccc(-c2nnc(SCC(=O)Nc3ccc(C)c(C)c3)s2)cc1 | inactive: 71%
11 | CCOc1ccc(N2C(=O)c3[nH]nc(-c4ccc(OC)cc4)c3C2c2cccs2)cc1 (stereo not drawn) | inactive: 81%
12 | COCCCNC(=O)c1ccc2c(c1)N(Cc1ccccc1F)C(=O)c1ccccc1S2=O (stereo not drawn) | inactive: 93%
13 | CC(C)C1Oc2cc3oc(=O)ccc3cc2/C1=N\NC(N)=S (stereo not drawn) | inactive: 114%
14 | COc1ccc(C(=O)/C=C/c2cn(CC(O)CN3CCc4ccccc43)c3ccccc23)cc1 (stereo not drawn) | inactive: 63%
15 | CCc1ccccc1NC(=O)CCCN1C(=O)CCn2nc(-c3cn(C)c4ccccc34)cc21 | inactive: 134%
16 | COc1cc(Nc2nc(SCc3ccccc3Cl)nc3ccccc23)cc(OC)c1 | inactive: 95%
17 | COc1cccc(NC(=O)c2oc3ccccc3c2NC(=O)C2CCCCC2)c1 | inactive: 64%
18 | CCOCc1cc(CN2CCN(c3ccccc3OC)CC2)c(O)c2ncccc12 | inactive: 88%
19 | CCOc1ccc(NC(=O)CSc2oc(-c3ccccc3)nc2S(=O)(=O)c2ccc(Cl)cc2)cc1 | inactive: 178%
20 | COC(=O)c1cc(NC(=O)c2cc3sccc3n2Cc2ccc(Cl)cc2)cc(C(=O)OC)c1 | inactive: 89%
21 | S=c1sc2ccccc2n1CN1CCCCC1 | inactive: 102%
22 | Cc1cc(N2CCC(C(=O)N(CC(C)C)CC(C)C)CC2)n2nc(C)c(-c3ccc(Cl)cc3)c2n1 | inactive: 91%

Row | SMILES | survival
23 | O=C1NC(NS(=O)(=O)c2ccccc2)(C(F)(F)F)C(=O)N1c1ccc(F)cc1 (stereo not drawn) | inactive: 76%
24 | COc1ccccc1NC(=O)Cn1c(=O)c(CNc2ccccc2)cc2cc(OC)c(OC)cc21 | inactive: 101%
25 | O=C(Cc1ccccc1)N=Nc1c(O)[nH]c2ccccc12 | inactive: 110%
26 | Fc1ccc(-n2ncc3c(Nc4cccc(Cl)c4)ncnc32)cc1 | inactive: 63%
27 | CSc1ncc(Cl)c(C(=O)N(Cc2ccc(C)cc2)C2CCS(=O)(=O)C2)n1 (stereo not drawn) | inactive: 88%
28 | COc1ccccc1C1C=C(c2ccc(C(C)C)cc2)Nc2nnnn21 (stereo not drawn) | inactive: 63%
29 | Cc1cc(C)cc(OCc2cc(=O)n3c(-c4ccccc4)csc3n2)c1 | inactive: 88%
30 | Cc1cccc(CNC(=O)c2ccc3c(c2)c(C)c(C)n3Cc2ccccc2)c1 | inactive: 80%
31 | O=C(c1cnn(-c2ccc(F)cc2)c1-n1cccc1)N1CCN(c2ccc(Cl)cc2)CC1 | inactive: 63%
32 | CCOC(=O)c1ccc(NC(=O)NC2CC3CCC(C2)N3Cc2nnnn2Cc2ccco2)cc1 (stereo not drawn) | inactive: 103%
33 | O=S(=O)(c1ccccc1)c1nnn2c1nc(NCc1ccc(Cl)cc1)c1sccc12 | inactive: 88%
34 | O=C1CCc2cc(S(=O)(=O)NCc3ccccc3Cl)cc3c2N1CC3 | inactive: 53%
35 | COc1cc(OC)cc(-c2nc3nc(C)c(CCC(=O)Nc4ccc(C)cc4C)c(C)n3n2)c1 | inactive: 93%
36 | O=C(CCn1ccc2cc(S(=O)(=O)N3CCCC3)ccc21)NCc1ccccc1F | inactive: 83%
37 | COc1cccc(NC(=O)Cn2cc(S(=O)(=O)Cc3ccccc3F)c3ccccc32)c1 | inactive: 70%
38 | Cn1c(CC(=O)Nc2ccccc2)n[nH]c1=S | inactive: 100%
39 | CCOC(=O)N1CCN(Cc2nc3cc(NC(=O)c4cccc(C)c4)ccc3n2C(C)C)CC1 | inactive: 91%
40 | Cc1ccc(S(=O)(=O)c2nnn3c2nc(NCc2cccs2)c2sccc23)cc1 | inactive: 127%
41 | CCn1nc(C)c2c(-c3ccccc3)cc(=O)n(C(C)C(=O)NCc3ccccc3OC)c21 (stereo not drawn) | inactive: 70%
42 | Cc1cc(OC(C)C(=O)N(Cc2ccc(N(C)C)cc2)Cc2ccco2)ccc1Cl (stereo not drawn) | inactive: 81%
43 | CC1CCCN(CCCNC(=O)c2ccc3c(c2)N(Cc2ccc(Cl)cc2)C(=O)c2ccccc2S3(=O)=O)C1 (stereo not drawn) | inactive: 142%
44 | Cc1ccccc1C(=O)Nc1cccc(OCc2cc(=O)n3cccc(C)c3n2)c1 | inactive: 90%

Row | SMILES | survival
45 | CCc1ccc(NC(=O)CN2C(=O)CSc3ccc(S(=O)(=O)N(C)C)cc32)cc1 | inactive: 69%
46 | CCOc1ccc(-c2ncccc2O)cc1 | inactive: 106%
47 | Cc1ccc(C)c(NC(=O)Cn2cc(S(=O)(=O)Cc3cccc(Cl)c3)c3ccccc32)c1 | inactive: 73%
48 | O=C(NCc1ccccc1)c1ccc2c(c1)CCN2S(=O)(=O)c1ccc(Cl)cc1 | inactive: 88%
49 | CCOc1ccc(NC(=O)N2CCN(c3ccc(Cl)c(Cl)c3)CC2)cc1 | inactive: 120%
50 | O=C(NCc1cccnc1)c1cn(C2CC2)c2cc(N3CCN(C(=O)c4cccc(Cl)c4)CC3)c(F)cc2c1=O | active: 0%
51 | CCn1cc(C(=O)NCCc2ccc(OC)c(OC)c2)c(=O)c2cc(S(=O)(=O)N(C)C3CCCCC3)ccc21 | inactive: 67%
52 | COc1ccc2cc3c(N)nn(C(=O)c4ccccc4Cl)c3nc2c1 | inactive: 74%
53 | COc1ccc(-c2noc(CN(C(=O)C(C)Oc3ccc(C)cc3)C(C)C)n2)cc1 (stereo not drawn) | inactive: 77%
54 | CC(C)Oc1ccc(C(=O)N(Cc2ccc(N(C)C)cc2)C2CCS(=O)(=O)C2)cc1 (stereo not drawn) | inactive: 79%
55 | CCc1ccc(NCc2cc3ccc(OC)cc3n(CC(=O)Nc3c(C)cc(C)cc3C)c2=O)cc1 | inactive: 81%
56 | COc1ccc(Cl)cc1NC(=O)Cn1ccn(-c2cc(C)cc(C)c2)c(=O)c1=O | inactive: 79%
57 | Cn1nnc2c(N3CCN(c4ccc(F)cc4)CC3)ncnc21 | inactive: 80%
58 | CCOC(=O)C1CCN(C2CC(=O)N(c3ccc(NC(C)=O)cc3)C2=O)CC1 (stereo not drawn) | inactive: 106%
59 | N#Cc1cc2c(nc1SCC(=O)N1CCOCC1)CCC2 | inactive: 102%
60 | CCOc1cccc(CNC(=O)c2ccc(N3CCCC3)c(NC(=O)NCc3ccccc3)c2)c1 | inactive: 77%
61 | Cc1ccccc1CNC(=O)CCS(=O)(=O)c1cc2c3c(c1)CCN3C(=O)CC2 | inactive: 132%
62 | Cc1ccc(Nc2sc(C(=O)c3ccccc3)c(N)c2S(=O)(=O)c2ccccc2)cc1Cl | inactive: 101%
63 | Fc1ccc(-n2ncc3c(Nc4ccc5c(c4)OCCO5)ncnc32)cc1 | inactive: 89%
64 | Cc1ccc(N2CCN(C(=O)c3cc4cc5ccc(C)cc5nc4s3)CC2C)cc1 (stereo not drawn) | inactive: 85%
65 | FC(F)(F)c1cccc(C(c2nnnn2Cc2ccccc2)N(Cc2ccco2)CC2CCCO2)c1 (stereo not drawn) | inactive: 140%
66 | Cc1nc2ccccn2c1C(=O)OCC#N | inactive: 108%

Row | SMILES | survival
67 | Cc1cc(S(=O)(=O)N(C)CCc2ccccc2)ccc1-n1cnnn1 | inactive: 99%
68 | COc1ccccc1N1CCN(C(=O)CCS(=O)(=O)c2ccc3c(c2)oc(=O)n3C)CC1 | inactive: 68%
69 | CCc1ccc(CNC(=O)Cn2nc(-c3ccc(C)cc3)ccc2=O)cc1 | inactive: 124%
70 | CCOC(=O)N1CCN(C(=O)c2cnn3c(C(F)(F)F)cc(-c4cccc(OC)c4)nc23)CC1 | inactive: 96%
71 | COc1ccc(O)c(C2=Nc3ccccc3N=C(c3ccccc3)C2)c1 | inactive: 100%
72 | COc1cc(C(=O)NCCc2csc(-c3ccc(Cl)cc3)n2)cc(OC)c1OC | inactive: 67%
73 | COc1ccc(-c2noc(CSc3nnc(C)n3-c3cccc(C)c3)n2)cc1 | inactive: 91%
74 | Cc1cc(C=C(C#N)C#N)c(C)n1-c1ccccc1 | inactive: 114%
75 | COc1ccccc1NC(=O)c1oc2ccccc2c1NC(=O)Cc1ccccc1 | inactive: 80%
76 | CCOC(=O)c1nc(Nc2ccc(C(=O)OC(C)C)cc2)c2ccccc2n1 | inactive: 93%
77 | CC(O)Cc1nsc(NC(=O)c2cccs2)n1 (stereo not drawn) | inactive: 108%
78 | CSc1nnc(C2CCCN(CC(=O)NC3CCCCC3C)C2)n1C (stereo not drawn) | inactive: 124%
79 | CNC(=O)c1ccc2c(c1)N(Cc1cc(C)ccc1C)C(=O)c1ccccc1S2 | inactive: 58%
80 | CCn1c(=O)c(C(=O)Nc2ccc(Cl)cn2)c(O)c2ccccc21 | inactive: 104%
81 | O=C(CN1C(=O)CC(c2ccccc2)=Nc2ccccc21)Nc1ccc(Br)cc1 | inactive: 146%
82 | COc1ccc(CNC(=O)c2ccc(-c3nc(CSc4ccc(C)cc4)c(C)o3)cc2)c(OC)c1 | active: 1%
83 | Cc1cccc(CCNC(=O)c2cc3c(s2)-c2c(C)cccc2OC3)c1 | inactive: 100%
84 | O=C(NCCc1ccccc1)c1ccc(Nc2nc3ccccc3n3nnnc23)cc1 | inactive: 71%
85 | Cc1ccc2c(c1)N(C(=O)Nc1cccc3c1CCCC3)CCO2 | inactive: 89%
86 | CCCN1CCN(C(=O)Cn2c(-c3cccs3)cc3cc(F)ccc32)CC1 | inactive: 85%
87 | CCOC(=O)C1=C(C)N(C2CCCCC2)C(=O)C1 | inactive: 109%
88 | CCOC(=O)c1c(NC(=O)CSc2cn(CCNC(=O)c3ccc(OC)cc3)c3ccccc23)sc2c1CCCC2 | inactive: 70%
